Inconclusive results are not listed. Calls come from the whole dose curve; as a rule, active = well fitted curve in the direction sought with a large enough effect; inconclusive = small, poorly fitted or top-dose-only effect, or another doubt; inactive = no such curve, though single readings can be large; an effect the other way counts as inactive or inconclusive. For part of its entries the source gives two or more results. This is not the full list of results. There may be further records. The records of an entry are repeats across runs, samples, wells, individuals or studies. The source holds several records for some structures; these can differ, active in one and inactive in another. Brackets tell where a record comes from. The letters are not those of the source and start again with each entry. Brackets with × count equal records among those shown.

Test [1] is described as follows: qHTS of pediatric cancer cell lines to identify multiple opportunities for drug repurposing: Primary screen for U-2 OS cells (AID 1347096). Note: nearly all actives have a fitted effect of over 50% in size. Note: potency is the fitted concentration of half-maximal effect. The following applies: U-2 OS viability, CellTiter-Glo luminescence, 48 h; series mostly up to 46 µM. The method, boiled down:
(§1)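 Cells (500-1,000/well) in growth media were settled 5 h at 37 degrees C, then given compounds for 48 h. Viability was read as CellTiter-Glo luminescence. Primary runs used MIPE at 11 points (0.78 nM-46 µM) and NPC at 8 points (0.59 nM-46 µM); follow-ups used 11 points.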
(In qHTS, concentration-response curves come from the screen itself.)

Test [2] in a line: qHTS of pediatric cancer cell lines to identify multiple opportunities for drug repurposing: Primary screen for control Hh wild type fibroblast cells (AID 1347106). Note: nearly all actives have a fitted effect of over 55% in size. Note: potency is the fitted concentration of half-maximal effect. The note with it: Hh wild-type fibroblast viability, CellTiter-Glo luminescence, 48 h; series mostly up to 46 µM. The procedure, abridged:
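Viability after 48 h compound treatment at 37C, 500-1,000 cells/well, read as ATP luminescence with CellTiter-Glo. Primary screens used 11-point (MIPE, 0.78 nM-46 µM) or 8-point (NPC, 0.59 nM-46 µM) final concentrations; follow-up screens used 11-point dilutions.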

Test [3] is described as follows: qHTS of pediatric cancer cell lines to identify multiple opportunities for drug repurposing: Primary screen for Rh18 cells (AID 1347102). Note: nearly all actives have a fitted effect of over 65% in size. Note: potency is the fitted concentration of half-maximal effect. The note with it: Rh18 rhabdomyosarcoma viability, CellTiter-Glo luminescence, 48 h; series mostly up to 46 µM. The method, boiled down: as §1
The test system of test [4] is Zika virus NS2B-NS3 protease. Description: Primary screen GU AMC qHTS for Zika virus inhibitors (AID 1347154). Note: nearly all actives have a fitted effect of over 70% in size. Note: potency is the fitted concentration of half-maximal effect. The following applies: Zika NS2B-NS3 unlinked protease, AMC fluorogenic substrate; series mostly up to 54.1 µM. The procedure, abridged: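 Unlinked Zika NS2B hydrophilic domain/NS3 protease domain noncovalent complex (25 nM final) in 10 mM Tris-HCl pH 8.0, 0.01% Tween 20, with AMC peptide substrate. Fluorescence (ex 340, em 450 nm) change over 15 min, room temperature; percent inhibition fitted to 4-parameter Hill equation.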

Test [5] can be described thus: qHTS Assay for Lipid Storage Modulators (AID 1519). The note with it: Drosophila S3 cells, BODIPY lipid droplet/cell ratio, laser cytometry, cells loaded with oleic acid. The procedure, abridged:
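Cells seeded at 5,000 per well were treated with compounds over a concentration series and loaded with oleic acid (400 uM, as added). Lipid droplet fluorescence (488 nm excitation, 500-530 nm channel) was read by laser-scanning cytometry and normalized to 20 uM Triacsin C.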

Test [6] can be described thus: qHTS of pediatric cancer cell lines to identify multiple opportunities for drug repurposing: Primary screen for SK-N-SH cells (AID 1347098). Note: nearly all actives have a fitted effect of over 65% in size. Note: potency is the fitted concentration of half-maximal effect. The note with it: SK-N-SH viability, CellTiter-Glo luminescence, 48 h; series mostly up to 57 µM. The procedure, abridged: (§2)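 Cells (500-1,000/well) rested 5 h, then received compounds for 48 h; metabolically active cells were measured by CellTiter-Glo luminescence. Final concentrations spanned up to 46 µM (MIPE, 11-point) or 0.59 nM-46 µM (NPC, 8-point) in primary screens, 11-point in follow-ups.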

Test [7] is described as follows: qHTS of pediatric cancer cell lines to identify multiple opportunities for drug repurposing: Primary screen for OHS-50 cells (AID 1347103). Note: nearly all actives have a fitted effect of over 40% in size. Note: potency is the fitted concentration of half-maximal effect. The following applies: OHS-50 osteosarcoma viability, CellTiter-Glo luminescence, 48 h; series mostly up to 57.3 µM. The method, boiled down: as §2
Test [8] concerns Zika virus NS2B-NS3 protease (linked). Description: 384 well plate NINDS AMC confirmatory qHTS for Zika virus inhibitors (AID 1347163). Note: nearly all actives have a fitted effect of over 50% in size. Note: potency is the fitted concentration of half-maximal effect. The following applies: Recombinant NS2B-NS3 protease, Ac-VKTGKR-AMC fluorescence; series mostly up to 100 µM. The method, boiled down: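 Linked NS2B-NS3 protease (final 5 nM, 30 nM or 60 nM) was preincubated with compounds (final up to 1 mM) for ~15 minutes. Ac-VKTGKR-AMC substrate (final 30 microM) then reacted for 25 minutes at room temperature in the dark. Fluorescence (ex 355/em 460 nm) was normalized to no-enzyme and no-inhibitor controls.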

Test [9] can be described thus: Primary qHTS for inhibitors of La Crosse Virus (LACV) - induced cell death in SH-SY5Y cells (AID 1508616). Note: potency is the fitted concentration of half-maximal effect. The note with it: SH-SY5Y LACV cytopathicity rescue, ATP luminescence, 6 d; series mostly up to 9.63 µM. The procedure, abridged:
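Protection against LACV-induced cell death is scored in SH-SY5Y cells exposed to compounds and virus (0.01 MOI) for 6 days. Data normalized to virus-infected DMSO wells and virus-free DMSO wells.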

The nature of test [10]: Counterscreen qHTS for small molecule stabilizers of the endoplasmic reticulum resident proteome: GLuc-NoTag assay (AID 1508627). Note: potency is the fitted concentration of half-maximal effect. The note with it: Gaussia luciferase NoTag secretion counterscreen, luminescence, thapsigargin 100 nM for final 4 h; series mostly up to 76.4 µM. The method, boiled down: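 SH-SY5Y cells stably expressing constitutively secreted GLuc (no SERCaMP tag) were pre-incubated 5 h, treated with compound for 19 h, then 100 nM thapsigargin for 4 h at 37C; medium GLuc read by coelenterazine luminescence.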
(In general: A counterscreen serves to expose hits that act by an unwanted route or on another target.)

A short description of test [11]: Confirmatory qHTS for small molecule stabilizers of the endoplasmic reticulum resident proteome: Secreted ER Calcium Modulated Protein (SERCaMP) assay (AID 1508628). Note: nearly all actives have a fitted effect of over 40% in size. Note: potency is the fitted concentration of half-maximal effect. The note with it: SERCaMP secreted luciferase ER calcium/proteostasis reporter; series mostly up to 76.3 µM. The method, boiled down: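 SH-SY5Y cells stably expressing GLuc-SERCaMP, treated 16 h with compound (primary 1.53, 7.67, 38.3 uM; confirmation 11 concentrations, up to 76.6 uM), then 100 nM thapsigargin for 4 h. Secreted Gaussia luciferase in medium read by coelenterazine luminescence.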

With `CN(C)CCCN1c2ccccc2CCc2ccc(Cl)cc21`, the Potency result was “active: 9.35 µM [sample A] and inactive [sample B]” in [1]; “active: 264 nM [sample A] and inactive [sample B]” in test [2]. As to `Cn1cnc2c1c(=O)[nH]c(=O)n2C`, the Potency result in [1] is “inactive [sample A] and active: 18.7 µM [sample B]”; in test [3], “inactive [sample A] and active: 26.4 µM [sample B]”. Regarding `CC(C)NCC(O)c1ccc(O)c(O)c1` (stereo unspecified), the Potency result in [3] is “active: 5.9 µM [sample A] and inactive [sample B]”. Take `CC(C)C(=O)Nc1ccc([N+](=O)[O-])c(C(F)(F)F)c1`: the Potency entry in test [2] was “inactive [sample A] and active: 14.8 µM [sample B]”. Consider `OCCN(CCO)c1nc(N2CCCCC2)c2nc(N(CCO)CCO)nc(N3CCCCC3)c2n1`, for which the Potency entry in [4] was “active: 21.2 µM [sample A] and inactive [sample B]”. In the case of `COc1ccc2[nH]cc(CCNC(C)=O)c2c1`, the max response was -1.52, 13.7, -38.8, 18.7% [separate samples] in test [5] (measured here: cell count channel max response) and 1.9, 28.4, -51.2, 25.4% [separate samples] in test [5] (measured here: lipid channel max response). Consider `O=C(Nc1ccc([N+](=O)[O-])cc1Cl)c1cc(Cl)ccc1O`, for which, in [6], the Potency result is “active: 1.68 µM [sample A] and inactive [sample B]”. Turning to `CC1(CN2CCC(n3c(=O)[nH]c4ccccc43)CC2)OCc2ccccc2-n2cccc21` (stereo unspecified), in test [7], the Potency entry is “inactive [sample A] and active: 30.9 µM [sample B]”. On to `O=C1Cc2cc(CCN3CCN(c4nsc5ccccc45)CC3)c(Cl)cc2N1`, for which the Potency entry in [8] was “inactive [sample A] and active: 10 µM [sample B]”. Take `COC(=O)Nc1nc2ccc(C(=O)c3cccs3)cc2[nH]1`: the Potency result in test [9] was “inactive [sample A] and active: 100 nM [sample B]”.

`Cc1ccc(C(=O)Nc2ccc(S(=O)(=O)O)c3cc(S(=O)(=O)O)cc(S(=O)(=O)O)c23)cc1NC(=O)c1cccc(NC(=O)Nc2cccc(C(=O)Nc3cc(C(=O)Nc4ccc(S(=O)(=O)O)c5cc(S(=O)(=O)O)cc(S(=O)(=O)O)c45)ccc3C)c2)c1`: the Potency entry in [10] is “inactive [sample A] and active: 7.08 µM [sample B]”. The same measure, in the same setting: the result for `CN1C2CCC1CC(OC(=O)C(CO)c1ccccc1)C2` (stereo unspecified) reads “inactive [sample A] and inactive [sample B] and active: 25.1 µM [sample C]”.

Regarding `O=c1c(O)c(-c2ccc(O)c(O)c2)oc2cc(O)cc(O)c12`, the Potency result in test [11] was “active: 8.91, 31.6 (2×), 3.16, 25.1, 12.6, 6.31, 5.62, 7.94, 15.8 µM and inactive [separate samples]”.

Source of the values: PubChem BioAssay (NCATS).
